{
  "source": "PubChem BioAssay AID624173",
  "about": "(National Center for Advancing Translational Sciences (NCATS), 2012)",
  "note": "Several values for one entry are separate records, joined by “and”; a condition that tells them apart may be missing. Equal entries are not always repeated. In all, about 410,000 compounds went through this assay and about 490 (0.12%) were called active. This list was built around the results that the source calls inconclusive (neither active nor inactive); the mix of calls is not that of the screen. Calls come from the whole dose curve; as a rule, active = well fitted inhibition curve with a large enough effect; inconclusive = small, poorly fitted or top-dose-only effect; inactive = flat fitted curve, though single readings scatter. Potencies of inconclusive entries are doubtful fits and often do not repeat. Potency is the fitted concentration of half-maximal effect; tags give direction and shape of the fitted curve.",
  "data": [
    {"target": "pyruvate kinase (Trypanosoma brucei) (UniProt Q57TT1)", "experiment": "qHTS of Trypanosoma Brucei Inhibitors; note: nearly all actives have a fitted effect of over 50% in size", "details": "TbPYK enzyme, Kinase-Glo Plus ATP luminescence, 45 min; series mostly up to 76.8 µM", "how_it_was_run": "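Activity of T. brucei pyruvate kinase was followed by Kinase-Glo Plus luminescence after the enzyme reacted 45 min at room temperature with 130 uM ADP (final) and substrate. Test compounds were added before ADP at multiple concentrations.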", "values": [
      {"smiles": "CCc1ccccc1NS(=O)(=O)c1cc(Br)cc2c1N(C(=O)C1CC1)CC2", "Potency": "inactive"},
      {"smiles": "O=C(CSc1nc2ccccc2nc1N1CCCC1)Nc1ccc(Cl)cc1", "Potency": "inactive"},
      {"smiles": "Cc1ccc(S(=O)(=O)Nc2ccccc2C(=O)OC(C)C(=O)Nc2ccc3ccccc3c2)cc1[N+](=O)[O-]", "note": "(stereo not drawn)", "Potency": "inactive"},
      {"smiles": "Cc1ccc(NC(=O)Cn2cccc2)cc1Cl", "Potency": "inactive"},
      {"smiles": "CC[C@@]1(C(=O)OC)N[C@H](CN(C)C(=O)C2CCCCC2)[C@@H]2C(=O)N(C)C(=O)[C@@H]21", "Potency": "inactive"},
      {"smiles": "O=c1[nH]c(/C=C/c2cccc3ccccc23)nc2ccccc12", "Potency": "inactive"},
      {"smiles": "Cc1ccc(C(=O)OCC(=O)Nc2ccccc2Cl)c(O)c1", "Potency": "inconclusive: 50.1 µM [inhibitor, single point]"},
      {"smiles": "Cc1[nH]c(=O)c(C#N)cc1-c1ccccc1", "Potency": "inconclusive: 50.1 µM [inhibitor, single point]"},
      {"smiles": "C=CCc1c(C)nc(SC)nc1Nc1ccccc1", "Potency": "inconclusive: 31.6 µM [inhibitor, single point]"},
      {"smiles": "O=C(c1ccccc1)c1ccccc1N1C(=O)C=CC1=O", "Potency": "active: 5.01 µM"},
      {"smiles": "COc1ccc(OCC(=O)Nc2ccc(N3CCOCC3)cc2)cc1", "Potency": "inconclusive: 35.5 µM [inhibitor, single point]"},
      {"smiles": "CCN(CC)c1ccc(/C=C/c2cccc[n+]2C)c(OC)c1", "Potency": "inconclusive: 39.8 µM [inhibitor, single point]"},
      {"smiles": "S=c1[nH]nc(-c2ccccn2)n1/N=C/c1ccc(Br)s1", "Potency": "inconclusive: 3.16 µM [inhibitor, full curve, poor fit]"},
      {"smiles": "O=C(O)/C=C/C(=O)Nc1ccc2c(c1)C(=O)c1ccccc1C2=O", "Potency": "inconclusive: 50.1 µM [inhibitor, single point]"},
      {"smiles": "Cc1ccc(/C=N/n2c(-c3cccs3)n[nH]c2=S)cc1", "Potency": "inconclusive: 12.6 µM [inhibitor, partial curve]"},
      {"smiles": "COc1ccc(/C=N/NC(=O)COc2ccc3ccccc3c2)c(C(=O)O)c1OC", "Potency": "inconclusive: 50.1 µM [inhibitor, partial curve, poor fit]"},
      {"smiles": "CN(C)c1ccc(-c2cc([C@H]3[C@@H]4C=CCC[C@@]4(C)C(=O)N3Cc3ccccc3)ccc2F)cc1", "Potency": "inactive"},
      {"smiles": "CCCCN1C(=O)NC(=O)/C(=C/c2cnc(SC)nc2)C1=O", "Potency": "inconclusive: 8.91 µM [inhibitor, partial curve, poor fit]"},
      {"smiles": "CCOC(=O)CNC(=O)CSc1nnc(Cn2c(=O)sc3ccccc32)n1C", "Potency": "inactive"},
      {"smiles": "CC(=O)NC1C(=O)N(CCN2CCOCC2)c2ccc(Br)cc21", "note": "(stereo not drawn)", "Potency": "inconclusive: 44.7 µM [inhibitor, single point]"},
      {"smiles": "NC1CCc2cc(O)c(O)cc2C1", "note": "(stereo not drawn)", "Potency": "inconclusive: 25.1 µM [inhibitor, partial curve, poor fit]"},
      {"smiles": "COC(=O)c1sc2cccc(F)c2c1S(=O)(=O)N1CCN(c2ccccc2OC)CC1", "Potency": "inconclusive: 14.1 µM [inhibitor, partial curve]"},
      {"smiles": "C/C=C\\C=C/C(=O)Nc1cccc(C2=NOC3(C2)C[C@@H](C(N)=O)N(C(=O)CCCCC)C3)c1", "note": "(stereo partly drawn)", "Potency": "inconclusive: 44.7 µM [inhibitor, partial curve, poor fit]"},
      {"smiles": "S=c1[nH]nc(COc2ccccc2)n1/N=C/c1cccs1", "Potency": "inconclusive: 3.55 µM [inhibitor, partial curve, poor fit]"},
      {"smiles": "O=C(/C=C/c1ccco1)Nc1cccc(C(=O)Nc2ccccc2C(=O)O)c1", "Potency": "inconclusive: 39.8 µM [inhibitor, single point]"},
      {"smiles": "O=c1c2ccccc2sn1-c1ccc(S(=O)(=O)N2CCCCC2)cc1", "Potency": "inconclusive: 28.2 µM [inhibitor, partial curve]"},
      {"smiles": "CN(C1CCCCC1)S(=O)(=O)c1ccc(=S)[nH]c1", "Potency": "inconclusive: 20 µM [inhibitor, partial curve]"},
      {"smiles": "O=C(Nc1ccc2c(c1)ncn2-c1ccccc1)c1ccco1", "Potency": "inconclusive: 20 µM [inhibitor, partial curve]"},
      {"smiles": "CC(C)CCC1(CCNC(=O)c2cccs2)CCOC(C)(C)C1", "note": "(stereo not drawn)", "Potency": "inactive"},
      {"smiles": "O=c1cc(NCc2ccccc2)[nH]c(=O)[nH]1", "Potency": "inconclusive: 31.6 µM [inhibitor, partial curve, poor fit]"},
      {"smiles": "CN(C)c1ccc2nc3ccc(=[N+](C)C)cc-3sc2c1", "Potency": "inconclusive: 20 µM [inhibitor, partial curve, poor fit] and inconclusive: 25.1 µM [inhibitor, partial curve]"},
      {"smiles": "COc1ccc(-c2nc(-c3ccccn3)no2)cc1", "Potency": "inconclusive: 15.8 µM [inhibitor, partial curve, poor fit]"},
      {"smiles": "Cc1nonc1C(=O)N/N=C/c1ccc(O)cc1", "Potency": "inconclusive: 15.8 µM [inhibitor, partial curve, poor fit]"},
      {"smiles": "CC1(NC(=O)c2cccc(S(=O)(=O)N3CCN(c4ccc(F)cc4)CC3)c2)CCS(=O)(=O)C1", "note": "(stereo not drawn)", "Potency": "inactive"},
      {"smiles": "CNC(=S)/N=C(/Nc1ccccc1)c1ccccc1", "Potency": "inconclusive: 25.1 µM [inhibitor, single point]"},
      {"smiles": "COc1cccc(NS(=O)(=O)c2ccc3[nH]cc(C(=O)NCCc4ccccc4)c(=O)c3c2)c1", "Potency": "inactive"},
      {"smiles": "Cc1cc(C)c2[nH]c(C(=O)Nc3ccc(F)cc3Br)cc2c1", "Potency": "inconclusive: 28.2 µM [inhibitor, single point]"},
      {"smiles": "Nc1nonc1N/N=C/c1c(O)ccc2ccccc12", "Potency": "inactive"},
      {"smiles": "Cc1nc2sc(C(c3ccco3)N3CCc4ccccc4C3)c(O)n2n1", "note": "(stereo not drawn)", "Potency": "inconclusive: 31.6 µM [inhibitor, partial curve]"},
      {"smiles": "Cc1ccc(C)c(-n2c(-c3csc(C)c3C)n[nH]c2=S)c1", "Potency": "inconclusive: 3.55 µM [inhibitor, full curve]"},
      {"smiles": "Fc1ccc(-n2c(-c3ccco3)n[nH]c2=S)cc1", "Potency": "active: 8.91 µM"},
      {"smiles": "COc1ccccc1N1C(=O)NC(=O)/C(=C\\c2cnn(-c3ccccc3)c2)C1=O", "Potency": "inconclusive: 50.1 µM [inhibitor, single point]"},
      {"smiles": "O=[N+]([O-])c1ccccc1/C=N/n1c(C2CCCCC2)n[nH]c1=S", "Potency": "inconclusive: 4.47 µM [inhibitor, partial curve, poor fit]"},
      {"smiles": "COc1cc(C)nc(N2CCCC(C(=O)NCC(C)C)C2)n1", "note": "(stereo not drawn)", "Potency": "inconclusive: 50.1 µM [inhibitor, single point]"},
      {"smiles": "Cc1oc(-c2ccccc2)cc1C(=O)Nc1ccc(N(C)C)cc1", "Potency": "inconclusive: 10 µM [inhibitor, partial curve, poor fit]"},
      {"smiles": "C[Se]CCC(N)C(=O)O", "note": "(stereo not drawn)", "Potency": "inconclusive: 7.94 µM [inhibitor, partial curve]"},
      {"smiles": "COc1ccc(OC)c(C2NC(=O)c3sc(=S)n(-c4ccccc4)c3N2)c1", "note": "(stereo not drawn)", "Potency": "inconclusive: 28.2 µM [inhibitor, partial curve, poor fit]"},
      {"smiles": "Cc1ccc(S(=O)(=O)N2CCOCC2)cc1C(=O)N1CCN(c2ccc(C(F)(F)F)cn2)CC1", "Potency": "inactive"},
      {"smiles": "S=c1[nH]nc(-c2ccco2)n1Cc1ccccc1", "Potency": "inconclusive: 3.16 µM [inhibitor, full curve, poor fit]"},
      {"smiles": "CC(=O)c1sc(C(=O)O)c(-c2ccco2)c1-c1ccco1", "Potency": "inconclusive: 35.5 µM [inhibitor, partial curve, poor fit]"},
      {"smiles": "Nc1c(Cl)ncnc1N/N=C/c1ccc(O)cc1", "Potency": "inconclusive: 39.8 µM [inhibitor, single point]"},
      {"smiles": "COc1ccc(NC(=O)CSC2=Nc3ccccc3C3=NC(CCC(=O)NCc4ccc(F)cc4)C(=O)N23)cc1Cl", "note": "(stereo not drawn)", "Potency": "inactive"},
      {"smiles": "CCCCC(=O)NC(c1ccc(OC)c(OC)c1)c1c(O)ccc2ccccc12", "note": "(stereo not drawn)", "Potency": "inconclusive: 28.2 µM [inhibitor, single point]"},
      {"smiles": "CCOC(=O)C1C(c2cccs2)NC(=O)N(C)C1(O)C(F)(F)F", "note": "(stereo not drawn)", "Potency": "inactive"},
      {"smiles": "CCCCNC(=O)c1cc2cc(OC)ccc2[nH]1", "Potency": "inconclusive: 35.5 µM [inhibitor, single point]"},
      {"smiles": "O=C1ON=C(c2ccccc2)/C1=C/c1ccccc1", "Potency": "inconclusive: 50.1 µM [inhibitor, single point]"},
      {"smiles": "CC(=O)NS(=O)(=O)c1ccc(NC(=O)/C=C/c2ccc(C)o2)cc1", "Potency": "inconclusive: 35.5 µM [inhibitor, partial curve]"},
      {"smiles": "O=C1C(Cl)=C(NCCc2ccccc2)C(=O)c2ccccc21", "Potency": "inconclusive: 5.01 µM [inhibitor, full curve, poor fit]"},
      {"smiles": "N/C(=N\\OC(=O)c1ccccc1Cl)c1ccccn1", "Potency": "inconclusive: 39.8 µM [inhibitor, partial curve, poor fit]"},
      {"smiles": "Fc1ccc(-c2nn3c(C4COc5ccccc5O4)nnc3s2)cc1", "note": "(stereo not drawn)", "Potency": "inconclusive: 28.2 µM [inhibitor, partial curve]"},
      {"smiles": "O=c1c2ccccc2c(-c2ccccc2)nn1Cc1c(Cl)cccc1Cl", "Potency": "inconclusive: 50.1 µM [inhibitor, single point]"},
      {"smiles": "CC1=NN(c2nc3ccccc3[nH]2)C(=O)/C1=C/N(C)C", "Potency": "inconclusive: 31.6 µM [inhibitor, partial curve, poor fit]"},
      {"smiles": "Cc1cc(C)c2nc(NNC(=O)c3ccc(S(=O)(=O)N4CCCCC4)cc3)sc2c1", "Potency": "inconclusive: 39.8 µM [inhibitor, single point]"},
      {"smiles": "NS(=O)(=O)c1ccc(CCNC(=O)CN2CCC(Cc3ccccc3)CC2)cc1", "Potency": "inactive"},
      {"smiles": "CC(C)(C)C(=O)Cn1c[n+](N)cn1", "Potency": "inactive"},
      {"smiles": "C/C=C/C1=CC(=O)C[C@H](c2ccc(F)cc2)C1", "Potency": "inconclusive: 50.1 µM [inhibitor, single point]"},
      {"smiles": "COc1ccc(NC(=O)C2CCCN(c3ncnc4c3nc3n4CCCCC3)C2)c(OC)c1", "note": "(stereo not drawn)", "Potency": "inactive"},
      {"smiles": "CSS(=O)(=O)c1cccc2cccnc12", "Potency": "inconclusive: 22.4 µM [inhibitor, partial curve, poor fit]"}
    ]}
  ]
}
